The supplement of paper PMC11417369
± gives the standard deviation of the averaged measurements. The list shows a part of the results.

What follows are sequences tested on PfAP2-LT AP2 domain (GST-tagged) (assay: gcPBM binding intensity (ln(normalized median fluorescence intensity)); higher = stronger DNA binding).
How it was run: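 The highest Masliner-normalised natural-log median intensity across replicate spots of either probe orientation is reported as binding intensity. GST-tagged P. falciparum DNA-binding domains expressed in E. coli were applied for 1 h to an Agilent 4 × 180k array of primer-extended double-stranded 36-bp intergenic genomic probes plus negative controls, and bound protein was detected with Alexa488 anti-GST antibody and scanned at 488 nm.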

Sequence	gcPBM binding intensity (ln)
GTTATATTTAAAATAGTGCAATAAAAATAATAATAT	8.73 ± 0.46
CACAAATATACAAATACACACAAATATACGCATATA [CACACA_site2384]	9.35 ± 0.39
TTATGTATTTTAAATGGTTTTATTATAAAGTTTAAT [CACACA_negctrl_site1470]	8.44 ± 0.45
GGGAATTATGAAAAAAGTACAGAACAAAAGTAAAAG [XGTACX_site2861]	8.95 ± 0.57
ATATAGTAAAATTATACACACATGAATTTTCCCATG [CACACA_site1770]	9.1 ± 0.43
TTTTTTTTTTTTTTTTGTACTCATAAAAATATATTA [XGTACX_site3458]	8.21 ± 0.52
TACAAAAATGAAAAAAGTACATATCATTTAATATAA [XGTACX_site8066]	8.69 ± 0.49
ATTACATGATATATCACACACACATATAAATATATA [CACACA_site2830]	9.49 ± 0.26
CATATATATATATATACACACACACCGTCCGTGTTA [CACACA_site8975]	9.82 ± 0.2
CACATATAGTTATATGCACACATCTTACACATATAT [CACACA_site3692]	9.35 ± 0.37
AAAATCACAAAACACACACACACAAAAAAAAAAAAA [CACACA_site1443]	9.49 ± 0.53
TATCTGTATTTATATACACACATATTCTTTTTACAC [CACACA_site4798]	9.21 ± 0.42
ATGGTGCAACATTATGCACACCGTTAAATAACTAAT [CACACA_site9280]	9.02 ± 0.45
AAAAAAGTAAAAAAAGCACACACGAAAAAAAATAAA [CACACA_site2233]	9.3 ± 0.39
GTTTGAAGAACTATAAATGTATAAATAAAAGTTTAG [TGCATGCA_negctrl_site222]	8.46 ± 0.52
CATGGGCAAATATTCTCACACATAAACATAAACATA [CACACA_site4597]	8.86 ± 0.5
GAATAAATAAATAAATGTACATATATATTTATTTAT [XGTACX_site243]	8.75 ± 0.44
ATATGTATTTATATATGTTTGAATTTTTTTTTTTTT [CACACA_negctrl_site5]	8.46 ± 0.47
GTTCGAAGTATAATTTGTACATATAAAATGGTTCCC [XGTACX_site382]	8.73 ± 0.38
ATTTGATCAACAAAACGTACACATATTTTCATGTGT [XGTACX_site447]	9.71 ± 0.29
AAAACAGTGACAACTCGTACTTATATTTTTTTTTGT [XGTACX_site4968]	8.88 ± 0.41
AGGCCCTATGTTGTTACACACATAGAATGATACATC [CACACA_site1266]	9.06 ± 0.33

Sequence	gcPBM binding intensity (ln)
TAAAATTTAAAATATACACACAAAAAGTTATTACAA [CACACA_site4080]	8.68 ± 0.52
ATTAAATAATAATAATGTACGTATTATATTAATACA [XGTACX_site5439]	8.63 ± 0.43
AAATTATTATGAAATGGAAAATGCATAAATTGTTTT [XGTACX_negctrl_site206]	8.64 ± 0.42
ATTCTTTACTCATAAAATTATATTATATAAACTTTT [XGTACX_negctrl_site554]	8.45 ± 0.52
CTCTTTAAAAATATGGGTACAAAAAAAAAAAAAATA [XGTACX_site6185]	8.32 ± 0.6
AATACGACAAACAAATGTACAAATAAATATTCGCGT [XGTACX_site6427]	9.24 ± 0.3
TTTTCTTTTAATATTTTTAATAATTATATTTTGAAA [XGTACX_negctrl_site495]	8.13 ± 0.33
TGAGAAAATTAAAAGGTGCTCAGAAATTTTATATTA [GTGCAC_site9954]	8.54 ± 0.54
AAATTACTAATGTGCACACATACTAACGTTTAAATA [CACACA_site3572]	9.26 ± 0.33
AAAAATGTAAAGTGCGTGCACAAAATATTTGGAAAA	9.07 ± 0.51
TATATTTATTTATATGTATGCATGTCTGTATATGCT [TGCATGCA_site339]	8.93 ± 0.47
CAAAGATAAAATGATGCACACAAAAGGGTGTAATAT [CACACA_site8499]	9.32 ± 0.37
AAAGTACAATCATAATCACACGTGTCTATTATATAC [CACACA_site8103]	9.37 ± 0.49
ACATGGTTTACACGTGCATGTGGATGACTGGACATT [TGCATGCA_site640]	9.08 ± 0.42
AATATTTAATTCAACACACATACATATTTATTAAAA [CACACA_site2342]	8.69 ± 0.45
GCATAAATCAGACACACACACATATATAAATATGTA [CACACA_site7187]	9.73 ± 0.3
TAATATGAAAAGTGTACACACGCACAGACAAAAAAA [CACACA_site5594]	9.34 ± 0.36
ATTCATTTTAATATGGGTACATAAAAATAAAAAGAA [XGTACX_site2801]	8.55 ± 0.54
TATGATGATGAATAACGTACAAAAAAATTAATCACC [XGTACX_site6794]	9.05 ± 0.43
TACATTTTTATTTTTACACACATATTTATTTATATA [CACACA_site6609]	8.99 ± 0.48
TGTTTATTTTTTTTATGTACTTATTTTTTATTGCAT [XGTACX_site719]	8.98 ± 0.45
ATAAAATCTTAATCAACAAACAAACAAAAAAAAAAT [CACACA_negctrl_site1161]	8.77 ± 0.48
